Measurements taken from US20080176857A1, “4-Piperazinnylthieno[2,3-d]Pyrimidine Compounds as Platelet Aggregation Inhibitors” (priority 2005, published 2008).
Some entries of the source have several records that differ or are many. The other results are left out here. An entry can have further records. Values that stand side by side appear to be repeats (runs, samples, wells or individuals).

Biological target: P2Y12 receptor (Homo sapiens, UniProt Q9H244)
Test: [33P]-2MeS-ADP binding to recombinant human P2Y12 membranes (Assay 3)
Parameters: expressed in transfected cells; host or cells: HEK cells
Details: HEK cell membranes expressing human P2Y12, competition with 33P 2MeS-ADP
Method: 3. Human P2Y12 Recombinant Cell Membrane Binding Assay with ^33P 2MeS-ADP.
The ability of a test compound to bind to the P2Y12 receptor was evaluated in a recombinant cell membrane binding assay. In this competitive binding assay, the test compound competed against a radiolabelled agonist for binding to the P2Y12 receptor, expressed on the cell membrane. Inhibition of binding of the labeled material was measured and correlated to the amount and potency of the test compound. Data from this assay are presented in Table F. This binding assay is a modification of the procedure in Takasaki, J. et. al, Mol. Pharmacol., 2001, Vol. 60, pg. 432.
HEK cells were transfected with the pDONR201P2Y12 vector and cultured in MEM with GlutaMAX I, Earle's salts, 25 mM HEPES (Gibco # 42360-032) containing 10% dialyzed FBS (Gibco # 26400-044), 100 μM nonessential amino acids (Gibco # 11140-050), 1 mM sodium pyruvate (Gibco # 11360-070), 0.05% geneticin (Gibco #10131-027), 3 μg/mL blasticidin (Fluka brand from Sigma # 15205), and 0.5 μg/mL puromycin (Sigma # P-8833). […]
The plates were incubated at room temperature for 1 hour. […] The filter plates were sealed, shaken for 30 minutes, and counted on a Top Count. Data were analyzed using a four-parameter curve fit with a fixed minimum and maximum experimentally defined as the average positive and negative controls on each plate, and with a hill slope equal to one. […]

Chain of UniProt Q9H244 (Q9H244 whole entry): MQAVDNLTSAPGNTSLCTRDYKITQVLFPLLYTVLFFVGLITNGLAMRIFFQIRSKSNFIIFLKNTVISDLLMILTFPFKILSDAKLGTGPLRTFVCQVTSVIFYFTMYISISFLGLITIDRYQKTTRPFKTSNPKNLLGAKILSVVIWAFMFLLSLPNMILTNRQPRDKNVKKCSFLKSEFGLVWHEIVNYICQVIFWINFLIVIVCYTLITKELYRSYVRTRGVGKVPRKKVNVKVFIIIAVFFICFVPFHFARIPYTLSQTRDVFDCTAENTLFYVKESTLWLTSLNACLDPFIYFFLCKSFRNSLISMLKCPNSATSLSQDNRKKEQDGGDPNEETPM

IC50: > 10 µM and 380 nM [lines of one column]
SMILES: CCc1cc2c(N3CCN(C(=O)Cc4ccccc4)CC3)nc(SCC(=O)Nc3ccccc3)nc2s1 [Example 23, 2-({6-Ethyl-4-[4-(phenylacetyl)piperazin-1-yl]thieno[2,3-d]pyrimidin-2-yl}thio)-N-phenylacetamide]
Ki: > 5.7 µM and 210 nM [lines of one column]
